# Measured values reported in paper PMC12040169 (PLOS Biology, 2025).
# Some of the results follow.
# System: T1, C. trachomatis L2/434/Bu expressing GFP (CTL2-GFP)
# T1 construct: L2/434/Bu GFP intracellular growth in HeLa cells
# Set-up: species or system HeLa; C. trachomatis total inclusion area by high-content imaging, normalised to DMSO
# Conditions: total inclusion area; 28.5 h, 10 µM; inhibitor
# In short: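 High-content images of fixed, Hoechst-stained infected cultures supply inclusion area and count (growth) plus nuclei number (viability), complementing bulk GFP/resorufin fluorescence. MIC determination is unchanged from the primary assay.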
row,SMILES,% of control remaining
1,CN1CCN(C(=O)CNC(=O)CNS(=O)(=O)c2ccccc2)CC1 [CBK268651],115.066
2,CC(C)(C)OC(=O)N1CCC(C2OCc3cc(C(=O)N4CCNC(=O)C4)ccc3O2)CC1 (centres unmarked) [CBK173277],77.0115
3,Fc1ccc(Oc2nccnc2N2CCN(CCOc3cccnc3)CC2)cc1 [CBK083037T],107.013
4,COc1ccc(-c2cc(C(=O)Nc3ccc(S(N)(=O)=O)cc3)c3ccccc3n2)cc1OC [CBK263635],96.4484
5,Cc1cc(NC(=O)Cc2ccccc2)nc2c1c(=O)oc1ccccc12 [CBK291127],120.374
6,O=C(C1=C(O)C(=O)N(Cc2ccncc2)C1c1cccc(OCc2ccccc2)c1)c1cccs1 (centres unmarked) [CBK266247],124.488
7,CCC(c1ccccc1)N1CCN(Cc2noc(C)n2)CC1 (centres unmarked) [CBK305084],54.5488
8,COc1ccc(CN2CCC(Cc3ccccc3-c3cccc(F)c3)(C(N)=O)CC2)cc1 [CBK286277],83.9289
9,Cc1nn(CC(C)C(=O)NCCN2CCC(C)CC2)c(C)c1Cl (centres unmarked) [CBK281570],104.424
10,Cc1ccnc2nc(C(=O)OCC(=O)Nc3ccc4c(c3)CCC4)nn12 [CBK305853],86.2061
11,CC1(C)CC(=O)C2=C(C1)NC(Nc1nc3ccccc3s1)=NC2c1cccnc1 (centres unmarked) [CBK270025],81.0007
12,Cc1cccnc1NC(=O)COc1ccc(Cl)cc1Cl [CBK262154],58.1014
13,CCn1c(N2CCC(C(=O)NCC3CC3)CC2)nc2ccccc21 [CBK283983],59.9031
14,COc1ccc(C)cc1C1(CNC(=O)C2CCC(=O)N2)CCOCC1 (centres unmarked) [CBK304967],75.0184
15,COc1ccccc1CNCc1ccccc1OC [CBK262168],93.6464
16,CC(C)c1ccccc1OCC(=O)N1CCCc2c(cnn2C)C1 [CBK285287],86.8063
17,COc1ccccc1N1CCN(C2CCN(S(=O)(=O)c3ccc(NC(C)=O)cc3)CC2)CC1 [CBK264688],104.545
18,Cc1ccc(C(=O)N/C(=C\c2ccccc2F)c2n[nH]c(=S)[nH]2)cc1 [CBK263136],87.7137
19,N#CC1(NC(=O)CN2CCOC(Cn3cccn3)C2)CCCCC1 (centres unmarked) [CBK305268],82.6402
20,CCCN(C(=O)C1CC1)c1nc2c(s1)CCc1c-2cnn1C [CBK281930],65.188
21,CS(=O)(=O)c1ccc(CN2CCC3(CCN(Cc4ccccc4)CC3)C2)cc1 [CBK144066T],73.4375

row,SMILES,% of control remaining
1,CN(Cc1cnn(C)c1)C(=O)C1CCCN1Cc1ccccn1 (centres unmarked) [CBK305092],71.5261
2,C=C[C@H]1C[N@@]2CC[C@H]1C[C@@H]2CNS(=O)(=O)c1cccc(C#N)c1 [CBK288750],107.47
3,O=C(NCc1ccccc1OC1CCNC1)c1cnccn1 (centres unmarked) [CBK029462T],105.568
4,COc1ccc(OC(=O)N2CCC(n3c(=O)[nH]c4ccccc43)CC2)cc1 [CBK149868],114.116
5,Nc1ccc2cc(-c3cccc(OCc4ccccc4)c3)cnc2n1 [CBK081172],95.256
6,COc1cc(CNCc2ccccn2)ccc1OCc1cccc(Cl)c1 [CBK269877C],98.3589
7,Cc1c(C)n(CC(O)CN2C(=O)c3ccccc3S2(=O)=O)c2ccccc12 (centres unmarked) [CBK263960],127.511
8,CCCC/C=C/c1cnc(N)c(N2CCOCC2)n1 [CBK063398],133.143
9,Nc1nn2c(c1Cc1c(Cl)cccc1Cl)OCC2 [CBK088759],69.4165
10,CN1CCC(NC2(Cc3cc(-c4ccccn4)on3)COC2)CC1 [CBK289249],119.403
11,O=C(Nc1ccc(Cl)cc1)NC(C(=O)O)c1ccccc1 (centres unmarked) [CBK267405],71.9943
12,CCOC(=O)Cc1csc(NS(=O)(=O)c2cn(C)cn2)n1 [CBK000888],115.682
13,CCc1cccc(CC)c1NC(=O)CN(c1cccc(Cl)c1Cl)S(C)(=O)=O [CBK265934],106.306
14,C[C@@H]1CN(C(=O)c2cc3ccccc3n2C)C[C@H](C)O1 [CBK200234],106.599
15,N=c1sc(Cc2cc(Cl)ccc2Cl)cn1CC(=O)c1ccccc1 [CBK263584B],97.8723
16,Nc1cccc(-c2cncc(Nc3ccccc3)n2)c1 [CBK065265],147.498
17,COc1ccccc1Oc1ccc(C(F)(F)F)cc1[N+](=O)[O-] [CBK002845],85.6341
18,CCC(CC)Cn1c(-c2cccnc2)nc2cc(S(=O)(=O)NCCO)ccc21 [CBK003450],101.697
19,COc1ccccc1Nc1nc(N)nc(CSc2nc3ccccc3s2)n1 [CBK266747],105.769
20,O=C(c1ccco1)N1CCN(S(=O)(=O)c2ccc(Cl)cc2)CC1 [CBK068411],98.9406
